The supplement of paper PMC8728848
The other results are listed elsewhere or left out.

Assays:
Experiment in all cases: glycan array binding signal (z-score within array); higher = stronger binding
Details in all cases: glycan notation: IUPAC condensed, linker removed
[1] = target: Gal(b1-3)[Fuc(a1-4)]GlcNAc
Summary of the method: (§1)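 The binding signal is a Z-score computed within each array. Data were drawn from 3228 arrays in the Consortium for Functional Glycomics database, restricted to those with a known protein sequence. Scores were averaged over arrays of the same protein sequence at different concentrations or buffers, and over linkers, and negative values can be taken as non-binding.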

[2] = target: Gal(b1-3)[Fuc(a1-4)]GlcNAc(b1-3)Gal(b1-3)[Fuc(a1-4)]GlcNAc
Summary of the method: as §1

[3] = target: Gal(b1-3)[Fuc(a1-4)]GlcNAc(b1-3)Gal(b1-4)GlcNAc
Summary of the method: as §1

[4] = target: Gal(b1-3)[Fuc(a1-4)]GlcNAc(b1-3)Gal(b1-4)[Fuc(a1-3)]GlcNAc
Summary of the method: as §1

[5] = target: Gal(b1-3)[GlcNAc(b1-6)]GalNAc
Summary of the method: as §1

[6] = target: Gal(b1-3)[GlcNAc(b1-6)]GlcNAc
Summary of the method: as §1

[7] = target: Gal(b1-3)[Neu5Ac(a2-6)]GalNAc
Summary of the method: as §1

[8] = target: Gal(b1-3)[Neu5Ac(a2-6)]GlcNAc
Summary of the method: as §1

[9] = target: Gal(b1-3)[Neu5Ac(a2-6)]GlcNAc(a1-4)Gal(b1-4)Glc
Summary of the method: as §1

[10] = target: Gal(b1-3)[Neu5Ac(b2-6)]GlcNAc
Summary of the method: as §1

[11] = target: Gal(b1-4)GalNAc(a1-3)[Fuc(a1-2)]Gal(b1-4)GlcNAc
Summary of the method: as §1

[12] = target: Gal(b1-4)GalNAc(b1-3)[Fuc(a1-2)]Gal(b1-4)GlcNAc
Summary of the method: as §1

Gal(b1-4)Glc = target: Gal(b1-4)Glc
Summary of the method: as §1

Gal(b1-4)Glc6S = target: Gal(b1-4)Glc6S
Summary of the method: as §1

Gal(b1-4)GlcNAc = target: Gal(b1-4)GlcNAc
Summary of the method: as §1

[13] = target: Gal(b1-4)GlcNAc(b1-2)Man(a1-3)[Gal(b1-4)GlcNAc(b1-2)Man(a1-6)]Man(b1-4)GlcNAc(b1-4)GlcNAc
Summary of the method: as §1

[14] = target: Gal(b1-4)GlcNAc(b1-3)Gal(b1-3)GlcNAc
Summary of the method: as §1

[15] = target: Gal(b1-4)GlcNAc(b1-3)Gal(b1-4)Glc
Summary of the method: as §1

[16] = target: Gal(b1-4)GlcNAc(b1-3)Gal(b1-4)GlcNAc
Summary of the method: as §1

[17] = target: Gal(b1-4)GlcNAc(b1-3)Gal(b1-4)GlcNAc(b1-3)Gal(b1-4)GlcNAc
Summary of the method: as §1

[18] = target: Gal(b1-4)GlcNAc(b1-3)Gal(b1-4)[Fuc(a1-3)]GlcNAc(b1-3)Gal(b1-4)[Fuc(a1-3)]GlcNAc
Summary of the method: as §1

[19] = target: Gal(b1-4)GlcNAc(b1-3)GalNAc
Summary of the method: as §1

[20] = target: Gal(b1-4)GlcNAc(b1-3)[Gal(b1-4)GlcNAc(b1-6)]GalNAc
Summary of the method: as §1

[21] = target: Gal(b1-4)GlcNAc(b1-6)GalNAc
Summary of the method: as §1

[22] = target: Gal(b1-4)GlcNAc(b1-6)[Gal(b1-3)]GalNAc
Summary of the method: as §1

[23] = target: Gal(b1-4)GlcNAc(b1-6)[Gal(b1-3)]GlcNAc
Summary of the method: as §1

Gal3S(b1-3)GalNAc = target: Gal3S(b1-3)GalNAc
Summary of the method: as §1

Gal3S(b1-3)GlcNAc = target: Gal3S(b1-3)GlcNAc
Summary of the method: as §1

[24] = target: Gal3S(b1-3)[Fuc(a1-4)]GlcNAc
Summary of the method: as §1

Gal3S(b1-4)Glc = target: Gal3S(b1-4)Glc
Summary of the method: as §1

Gal3S(b1-4)Glc6S = target: Gal3S(b1-4)Glc6S
Summary of the method: as §1

Gal3S(b1-4)GlcNAc = target: Gal3S(b1-4)GlcNAc
Summary of the method: as §1

Gal3S(b1-4)GlcNAc6S = target: Gal3S(b1-4)GlcNAc6S
Summary of the method: as §1

Gal3S6S(b1-4)GlcNAc = target: Gal3S6S(b1-4)GlcNAc
Summary of the method: as §1

Gal3S6S(b1-4)GlcNAc6S = target: Gal3S6S(b1-4)GlcNAc6S
Summary of the method: as §1

Gal4S(b1-4)GlcNAc = target: Gal4S(b1-4)GlcNAc
Summary of the method: as §1

Gal4S6S(b1-4)GlcNAc = target: Gal4S6S(b1-4)GlcNAc
Summary of the method: as §1

Gal6S(b1-4)Glc = target: Gal6S(b1-4)Glc
Summary of the method: as §1

B1: STA (Solanum tuberosum) (protein)
chain: NASAPLPYPQCGLKKGGGKCIKTGECCSIWGWCGTTSDYCAPGYCQKQCPGPYPQGRCGWQANGKSCPTGTGQCCSNAGWCGTTSDYCAPNNCQSQCKLPPPPPSPPPPPPSPPPPSPPPPPPSPPPPSPSPPPPPPSPPPPSPPPPSPPPPSPPPPPSPSPPPPPPSPPPPPPPLPYPQCGMKKGGGKCIKTGECCSIWGWCGTTSKYCSPGYCQMQCPDPYPEGRCGWQANGKSCPTGTGQCCSNAGWCGTTSAYCAPVNCQAQCNTTTLTSPIKNRMRGIESFMLNVV
glycan array binding signal (z-score) [1]: -0.507 | glycan array binding signal (z-score) [2]: -0.498 | glycan array binding signal (z-score) [3]: -0.505 | glycan array binding signal (z-score) [4]: -0.508 | glycan array binding signal (z-score) [5]: -0.415 | glycan array binding signal (z-score) [6]: -0.18 | glycan array binding signal (z-score) [7]: -0.505 | glycan array binding signal (z-score) [8]: -0.511 | glycan array binding signal (z-score) [9]: -0.498 | glycan array binding signal (z-score) [10]: -0.511 | glycan array binding signal (z-score) [11]: 0.918 | glycan array binding signal (z-score) [12]: 0.033 | glycan array binding signal (z-score) (Gal(b1-4)Glc): -0.505 | glycan array binding signal (z-score) (Gal(b1-4)Glc6S): -0.488 | glycan array binding signal (z-score) (Gal(b1-4)GlcNAc): 1.65 | glycan array binding signal (z-score) [13]: -0.311 | glycan array binding signal (z-score) [14]: -0.498 | glycan array binding signal (z-score) [15]: -0.501 | glycan array binding signal (z-score) [16]: 1.71 | glycan array binding signal (z-score) [17]: 0.087 | glycan array binding signal (z-score) [18]: -0.51 | glycan array binding signal (z-score) [19]: -0.497 | glycan array binding signal (z-score) [20]: -0.506 | glycan array binding signal (z-score) [21]: 2.69 | glycan array binding signal (z-score) [22]: -0.499 | glycan array binding signal (z-score) [23]: -0.391 | glycan array binding signal (z-score) (Gal3S(b1-3)GalNAc): -0.483 | glycan array binding signal (z-score) (Gal3S(b1-3)GlcNAc): -0.498 | glycan array binding signal (z-score) [24]: -0.49 | glycan array binding signal (z-score) (Gal3S(b1-4)Glc): -0.501 | glycan array binding signal (z-score) (Gal3S(b1-4)Glc6S): -0.472 | glycan array binding signal (z-score) (Gal3S(b1-4)GlcNAc): 2.55 | glycan array binding signal (z-score) (Gal3S(b1-4)GlcNAc6S): 2.58 | glycan array binding signal (z-score) (Gal3S6S(b1-4)GlcNAc): -0.475 | glycan array binding signal (z-score) (Gal3S6S(b1-4)GlcNAc6S): -0.414 | glycan array binding signal (z-score) (Gal4S(b1-4)GlcNAc): 3.08 | glycan array binding signal (z-score) (Gal4S6S(b1-4)GlcNAc): -0.483 | glycan array binding signal (z-score) (Gal6S(b1-4)Glc): -0.495
